Reference: ChEMBL document CHEMBL4888484, “Replenishing the malaria drug discovery pipeline: Screening and hit evaluation of the MMV Hit Generation Library 1 (HGL1) against asexual blood stage Plasmodium falciparum ,using a nano luciferase reporter read-out” (2022)
The campaign covered roughly 150,000 compounds. About 540 (0.36%) showed an effect of 50% or more. The list shows a part of the results.

tested on: Plasmodium falciparum; assay: Primary screen in NF54 nanoGlo assay, in single point, at 2uM, 72h; a lower Z score goes with more inhibition; type: functional, Erythrocyte; settings: timepoint 72 hour

Compound	% Inhibition [%]	Z score
CN1CCCCC[C@H]1C(=O)NCCOCc1ccccc1	-15	2.59
Cc1cc(NC(=O)N2CCN(S(=O)(=O)NC(C)C)CC2)ccn1	4	-0.47
CCC(=O)N1CCc2ccc(OCc3nc(C(=O)N(C)Cc4ccco4)cs3)cc2[C@@H]1c1ccc(C)cc1	-24	3.22
CC(C(=O)NCC1CCCC12NC(=O)NC2=O)c1ccc(Cl)s1 (stereo not given)	-9	1.23
CCNC(=O)N1CCN(C(=O)c2nccc3ccccc23)CC1	-7	1.38
C=CCn1cc(CNCc2cccc3[nH]ccc23)c(C)n1	19	-2.4
N#CCNC(=O)c1cccc(Br)c1Cl	6	-0.77
CCOc1ccc2c(c1)-c1c(ssc1=S)C(C)(C)N2C(=O)CN1CCCCC1	-3	0.66
c1ccc2cc(-c3csc(N4CCCCC4)n3)ccc2c1	-15	2.4
CCOCc1nc2c(c(NCCc3scnc3C)n1)CCNCC2	-3	0.63
COc1c[nH]c(C(=O)NCCc2nc(C)no2)cc1=O	11	-1.47
CC(C)(C)NCCNC(=O)CCc1cccc(F)c1F	-14	1.94
COc1cccc(CNS(=O)(=O)c2cc3c(cc2Br)CCN3C(C)=O)c1	-5	0.83
Cc1nc(-c2cccc(-c3noc(-c4ccccn4)n3)c2)cs1	-25	2.86
Cc1cc(C2CCC2)nc(N[C@H]2CCN(C(=O)c3ccccc3)C[C@@H]2O)n1	2	-0.21
CNC(=O)c1cccc(C(=O)Nc2cc(C3CCCC3)[nH]n2)c1	-5	0.87
CO[C@H]1CCCC[C@@H]1NC(=O)Cc1cccc(C(=O)O)c1	-6	1.29
COc1ccccc1C(=O)Nc1nc(CCc2c[nH]c3ccccc23)n[nH]1	-3	0.35
COc1ccc(S(=O)(=O)N2CC(Nc3ncccn3)C2)cc1Cl	-10	1.12
Cc1cc(F)cc(-c2cc(N(C)C)ncn2)c1	-6	0.82
CC(C)Oc1cc(Br)ccc1C(=O)NC[C@H]1COC(C)(C)O1	-13	2.81
O=C(Nc1cc(-c2onc3c2CCCC3)cc(C(F)(F)F)c1)c1cncc(Br)c1	96	-8.79

Compound	% Inhibition [%]	Z score
Cc1ccn(CCC(=O)NC[C@@H](c2ccncc2)N2CCOCC2)n1	-11	1.55
CCN(Cc1nc(-c2cc(F)cc(F)c2)oc1C)C[C@H]1CCCO1	18	-2.37
O=C(NCCn1cc(Cl)cn1)c1c[nH]nc1-c1ccccc1	-4	0.71
O=C(NC[C@H]1CCCO1)N(Cc1ccsc1)CC(F)(F)F	4	-0.51
O=C(c1csc(Nc2ccncc2)n1)N1CCN(C2CCCCC2)CC1	18	-2.85
COc1ccc(Cc2nc3nccc(-c4ccncc4)n3n2)cc1	0	0.06
O=C(Nc1nnc(CCC2CCCCC2)s1)C1CCCCC1	-10	1.41
CC(C)C[C@H]1CC(=O)Nc2c1c(=O)[nH]n2C(C)C	32	-3.58
Cc1n[nH]c(=O)c(C(=O)NC2CCCCCC2)c1C	10	-1.35
CC1(C)Cc2[nH]ncc2CN(CCc2ccc(F)c(F)c2)C1	-3	0.46
COc1ccc(CN2CC(N3CCCC[C@@H]3C)C2)cc1Cn1cccn1	-2	0.24
CCN(C(=O)[C@H]1CC(=O)N(c2ccc(C)cc2)C1)c1ccccc1C	-7	0.96
CC1=C(c2ccccc2)[C@H]1C(=O)NCC(C)(C)N1CCCC1	-8	1.45
Cc1nc(-n2nc(-c3ccco3)cc2N)[nH]c(=O)c1C	-16	1.82
O=C(c1cncc(F)c1)N1CCC(=C2CC2)CC1	0	0.06
Cn1ccnc1C(=O)NCCOc1ccccc1Cl	-10	1.7
CC(=O)c1c(F)cccc1-n1cc[n+](CCCOc2ccc(C(C)(C)C)cc2)c1	9	-1.55
OC(CNC1CCCn2ccnc21)COc1ccccc1Br (stereo not given)	4	-0.77
CC[C@H](C)[C@H](NC(=O)C(C)Cc1c(C)noc1C)C(=O)O (stereo not given in full)	-21	2.1
CCC[C@@]1(C2CCN(C(=O)C(=O)c3ccccc3)CC2)NC(=O)N(CCc2ccccn2)C1=O	-3	0.39
Cc1ccc(CN(CCc2ccccc2)C(=O)CN(CCN2CCCCC2)C(=O)C2CCCC2)o1	-3	0.22
Cc1cnc2c(c1)N(C(=O)c1cnn(C(C)C)c1C)CC2	-7	1.34

Compound	% Inhibition [%]	Z score
CCN(CC)CC(=O)Nc1c(C)cc(N)cc1C	-34	3.94
C[C@@H](CC(=O)NCCNC(=O)Cc1ccccc1)c1cccc(F)c1	0	0.07
COc1cc(NC(=O)COC[C@H]2CCCO2)c(F)cc1C#N	-5	0.81
O=C1c2ccccc2C(=O)N1CCn1nc(C(F)(F)F)ccc1=O	2	-0.28
CC1CCN([C@@H]2[C@H](O)[C@H](CO)O[C@@H]2CNC(=O)c2ccc(F)c(Cl)c2)CC1	-9	1.42
CCOC(=O)C(C(=O)OCC)N(C)S(=O)(=O)c1cnn(CC)c1	-1	0.14
COc1cccc(N2CCC(N3C[C@H](C(=O)O)[C@@H](C4CC4)C3)CC2)c1	-7	1.23
CCc1cc(Cl)ccc1NC(=O)N1CC[C@]2(CCN(C)C2)C1	-12	1.27
CCn1cc([C@H](CC(=O)N2CCN(Cc3ccc4c(c3)OCO4)CC2)c2cccc(OC)c2)c2ccccc21	32	-0.17
O=C(c1cncnc1C1CC1)N1CCCCCO1	-3	0.58
CC(C)c1noc(CNc2cc(Cl)ccc2N2CCC(CO)CC2)n1	-6	0.84
CCN(CC)S(=O)(=O)c1ccc(N2CCOCC2)c(NC(=O)C2=COCCO2)c1	24	-2.85
Cc1cc(NC[C@H](C)n2nc(C)cc2C)nc(N(C)C)n1	-10	1.09
Cc1cc(C)c2c(CC(=O)NCCc3cnn[nH]3)coc2c1C	-3	0.34
NC(=O)C[C@]1(O)CCCN(Cc2ncc(C(F)(F)F)s2)C1	-10	1.6
COC[C@H](NCc1cn(CCC(N)=O)c2ccccc12)c1ccnn1C	-3	0.44
Cc1cc(F)ccc1-n1ccc(C(=O)N2CCC[C@H]2CO)n1	-5	0.92
O=C([C@H]1CCCO1)N1CCC(N(C(=O)[C@H]2CCCO2)C2CC2)C1 (stereo not given in full)	-4	0.73
O=C1NC[C@@H](C(=O)NCCS(=O)(=O)c2ccccc2F)O1	-3	0.39
CC[C@H](NC(=O)c1ccccc1-c1ccccc1)c1ccccn1	9	-0.86
CN1CCN(c2ncnc(-c3ccccc3F)c2N)CC1	-13	1.79
CCc1cnccc1C(=O)OCCc1cn[nH]c1	-4	0.7

Compound	% Inhibition [%]	Z score
Cc1ccc([C@@H](N)CC(F)(F)F)cc1	4	-0.65
COc1ccc(C2=NC3(CCCCC3)N(C(=O)c3ccc(C)cc3)C2=O)cc1	-7	0.65
Cn1cc(CCNC(=O)[C@]2(O)CCOC2)c2ccc(Cl)cc21	-1	0.23
CN(C(=O)OC(C)(C)C)C1CCN(C(=O)C2CC2(Cl)Cl)C1 (stereo not given)	0	0
COc1ccc(C(=O)Nc2ccc(-c3c(-c4ccc(N(C)C)cc4)nn(-c4cccc(F)c4)c3OC(C)=O)cc2)cc1	-1	0.11
Cc1cccn(CC(=O)Nc2ccc3c(c2)CCC3)c1=O	-2	0.41
O=C(c1cnn2cc(CCO)cnc12)N1CCC[C@H](c2nccn2CC2CC2)C1	-10	1.85
COCCN1CCC[C@@](O)(CN2CCc3[nH]c4ccccc4c3C2)C1=O	-7	1.02
COC(=O)C(C)(C)CNCc1ccc(C)cn1	-4	0.67
Cn1c(C(=O)NCCN2CCC[C@H](C(N)=O)C2)cc2ccc(Cl)cc21	-1	0.11
CC(C)c1ccc(NC(=O)C2CCN(C(=O)c3ccc(-c4ccccc4)cc3)CC2)cc1	4	-0.46
COc1cccc2c1OC[C@@H](C(=O)N(C)Cc1nccs1)C2	-6	0.78
CN1CC(=O)N(c2cccc(NS(=O)(=O)NCc3ccccc3)c2)C1=O	1	-0.1
O=C(Cn1ccc(C(F)(F)F)cc1=O)NC[C@H]1CCCO1	4	-0.84
c1ccc(CCNc2nc(-c3ccccn3)cs2)cc1	34	-3.36
CC(C)(Cc1cccc(Cl)c1)C(=O)NCc1nnnn1C1CC1	-6	0.48
O=C(Nc1ccc(-c2nnc[nH]2)cc1)[C@@H]1CCCc2ccccc21	34	-3.86
CN1CC[C@@]2(CCC1=O)CN(C(=O)CCc1ccc3c(c1)OCO3)CCN2C	6	-1.02
O=C(Cn1cc(S(=O)(=O)N2CCCCCC2)ccc1=O)Nc1cc(F)ccc1F	-1	0.28
